According to the supplement of paper PMC4967469:
By IC50 is meant the dose at which the fit gives 50% viability; fits outside the tested doses are given as limits. AUC, from the same fit, is the share of area under the viability curve across the 256-fold dose range; the more sensitive the line, the further below 1. For part of these data: A top dose marked as inferred comes from the curve model; the source does not state it. For part of these data: Where an entry number is given, a second screen of the drug exists; the two often differ.

How the values were obtained:
Assay in all cases: Viability of human cancer cell lines after 72 h of drug (GDSC screen)
ABT-888 = compound: C[C@]1(c2nc3c(C(N)=O)cccc3[nH]2)CCCN1 [ABT-888]; conditions: top dose 5 µM; top dose inferred
Description: (§1)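 Human cancer cell lines in 384-well plates, medium with 10% serum, drug for 72 h over a 256-fold dose range (nine 2-fold or five 4-fold steps up to the top dose). Adherent lines were fixed and stained with the nucleic acid dye Syto60, suspension lines read with resazurin; signal relative to control wells, capped at 0 and 100%. One two-parameter sigmoid per drug and line, fitted in a mixed model over all curves with the slope shared within a line.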

CMK = compound: Cc1ccc(-c2c(C(=O)CCl)n(CCCO)c3ncnc(N)c23)cc1 [CMK]; conditions: top dose 4 µM; top dose inferred
Description: as §1

ABT-869 = compound: Cc1ccc(F)c(NC(=O)Nc2ccc(-c3cccc4[nH]nc(N)c34)cc2)c1 [ABT-869]; conditions: top dose 1.024 µM; top dose inferred
Description: as §1

Zibotentan = compound: COc1nc(C)cnc1NS(=O)(=O)c1cccnc1-c1ccc(-c2nnco2)cc1 [Zibotentan]; conditions: top dose 20 µM; top dose inferred
Description: as §1

(5Z)-7-Oxozeaenol = compound: COc1cc(O)c2c(c1)/C=C/C[C@H](O)[C@H](O)C(=O)/C=C\C[C@H](C)OC2=O [(5Z)-7-Oxozeaenol]; conditions: top dose 10 µM; top dose inferred
Description: as §1

QL-X-138 = compound: C=CC(=O)Nc1cc(-n2c(=O)ccc3cnc4ccc(-c5cn[nH]c5)cc4c32)ccc1C [QL-X-138]; conditions: top dose 10.24 µM; top dose inferred
Description: as §1

CHIR-99021 = compound: Cc1cnc(-c2cnc(NCCNc3ccc(C#N)cn3)nc2-c2ccc(Cl)cc2Cl)[nH]1 [CHIR-99021]
Description: as §1

MPS-1-IN-1 = compound: COc1cc(N2CCC(O)CC2)ccc1Nc1cc(Nc2ccccc2S(=O)(=O)C(C)C)c2cc[nH]c2n1 [MPS-1-IN-1]; conditions: top dose 20 µM; top dose inferred
Description: as §1

CP466722 = compound: COc1cc2ncnc(-n3nc(-c4ccccn4)nc3N)c2cc1OC [CP466722]; conditions: top dose 16 µM; top dose inferred
Description: as §1

Thapsigargin = compound: C/C=C(/C)C(=O)O[C@H]1C(C)=C2[C@H]([C@@H]1OC(=O)CCCCCCC)[C@@](C)(OC(C)=O)C[C@H](OC(=O)CCC)[C@@]1(O)[C@H]2OC(=O)[C@@]1(C)O [Thapsigargin]; conditions: top dose 0.512 µM; top dose inferred
Description: as §1

GSK269962A = compound: CCn1c(-c2nonc2N)nc2cnc(Oc3cccc(NC(=O)c4ccc(OCCN5CCOCC5)cc4)c3)cc21 [GSK269962A]; conditions: top dose inferred
Description: as §1

Cytarabine = compound: Nc1ccn([C@@H]2O[C@H](CO)[C@@H](O)[C@@H]2O)c(=O)n1 [Cytarabine]; conditions: top dose 2 µM
Description: as §1

KU-55933 = compound: O=c1cc(-c2cccc3c2Sc2ccccc2S3)oc(N2CCOCC2)c1 [KU-55933]; conditions: top dose 10 µM
Description: as §1

[1] = top dose 2.56 µM, screen: GDSC drug entry 154
[2] = top dose 10 µM, screen: GDSC drug entry 1241, top dose inferred
[3] = top dose 2.5 µM, screen: GDSC drug entry 127
[4] = top dose 5 µM, screen: GDSC drug entry 1192

Cell Line | AUC (ABT-888) | IC50 (ABT-888) [nM] | AUC (CMK) | IC50 (CMK) [nM] | AUC (ABT-869) | IC50 (ABT-869) [nM] | AUC (Zibotentan) | IC50 (Zibotentan) [nM] | AUC ((5Z)-7-Oxozeaenol) | IC50 ((5Z)-7-Oxozeaenol) [nM] | AUC (QL-X-138) | IC50 (QL-X-138) [nM] | AUC (CHIR-99021; [1]) | IC50 (CHIR-99021; [1]) [nM] | AUC (CHIR-99021; [2]) | IC50 (CHIR-99021; [2]) [nM] | AUC (MPS-1-IN-1) | IC50 (MPS-1-IN-1) [nM] | AUC (CP466722) | IC50 (CP466722) [nM] | AUC (Thapsigargin) | IC50 (Thapsigargin) [nM] | AUC (GSK269962A; [3]) | IC50 (GSK269962A; [3]) [nM] | AUC (GSK269962A; [4]) | IC50 (GSK269962A; [4]) [nM] | AUC (Cytarabine) | IC50 (Cytarabine) [nM] | AUC (KU-55933) | IC50 (KU-55933) [nM]
NCI-SNU-5 (stomach, suspension) | 0.971 | > 5000 | 0.961 | > 4000 | 0.987 | > 1020 | 0.989 | > 20000 | 0.771 | 3900 | 0.958 | > 10200 | 0.989 | > 2560 | 0.982 | > 10000 | 0.989 | > 20000 | 0.982 | > 16000 | 0.643 | 79.9 | 0.964 | > 2500 | 0.984 | > 5000 | 0.797 | 959 | 0.987 | > 10000
NH-12 (neuroblastoma, adherent) | 0.981 | > 5000 | 0.959 | > 4000 | 0.978 | > 1020 | 0.972 | > 20000 | 0.451 | 451 | 0.71 | 2730 | 0.919 | > 2560 | 0.901 | > 10000 | 0.806 | 11700 | 0.751 | 5830 | 0.48 | 28 | 0.982 | > 2500 | 0.909 | > 5000 | 0.77 | 850 | 0.95 | > 10000
NMC-G1 (glioma, adherent) | 0.946 | > 5000 | 0.899 | > 4000 | 0.98 | > 1020 | 0.975 | > 20000 | 0.554 | 905 | 0.569 | 1040 | 0.961 | > 2560 | 0.761 | 4330 | 0.865 | > 20000 | 0.666 | 3240 | 0.368 | 12.7 | 0.94 | > 2500 | 0.87 | > 5000 | 0.837 | 1800 | 0.98 | > 10000
NOS-1 (osteosarcoma, adherent) | 0.978 | > 5000 | 0.867 | > 4000 | 0.814 | 723 | 0.967 | > 20000 | 0.67 | 2080 | 0.403 | 326 | 0.974 | > 2560 | 0.941 | > 10000 | 0.738 | 7150 | 0.481 | 880 | 0.143 | < 2 | 0.923 | > 2500 | 0.947 | > 5000 | 0.833 | 1720 | 0.945 | > 10000
